Experimental data reported in the supplement of paper PMC12009370.
This is one part of the list. Repeats are few or missing, and single values can be far off.

What was measured:
IMR-32 [1] = assay: drug sensitivity score (DSS), single drug with vehicle (DSS (score)); higher = more cytotoxic; extreme values may be limits of the assay; conditions: 72 h; co-treatment: vehicle (DMSO)
SK-N-AS [2] = assay: as above; conditions: 72 h; co-treatment: vehicle (DMSO)
SK-N-AS [3] = assay: drug sensitivity score (DSS) in combination with SL-176 (DSS (score)); higher = more cytotoxic; extreme values may be limits of the assay; conditions: 72 h; co-treatment: SL-176 11.2 uM (IC25 in IMR-32)
IMR-32 [4] = assay: as above; conditions: 72 h; co-treatment: SL-176 11.2 uM (IC25 in IMR-32)
SK-N-AS [5] = assay: drug sensitivity score (DSS) in combination with GSK2830371 (DSS (score)); neuroblastoma lines; SL-176 and GSK2830371 are WIP1 inhibitors; higher = more cytotoxic; extreme values may be limits of the assay; conditions: 72 h; co-treatment: GSK2830371 at IC25 in IMR-32
IMR-32 [6] = assay: as above; conditions: 72 h; co-treatment: GSK2830371 at IC25 in IMR-32
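For drug sensitivity score (DSS) in combination with GSK2830371 in this document: neuroblastoma cells in 384-well plates, each compound at five concentrations, luminescence read-out, DSS derived from fitted concentration-response curve combining IC50 with minimum and maximum inhibition.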
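For drug sensitivity score (DSS) in combination with SL-176 in this document: cells in 384-well plates, luminescence read-out, each screening drug at five concentrations, DSS derived from the fitted concentration-response curve combining IC50 with minimum and maximum inhibition.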
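For drug sensitivity score (DSS), single drug with vehicle in this document: 384-well screen with five concentrations per compound and a luminescence read-out, DSS computed from the fitted dose-response curve combining IC50 with minimum and maximum inhibition.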

Compound | drug sensitivity score (IMR-32 [1]) | drug sensitivity score (SK-N-AS [2]) | drug sensitivity score (SK-N-AS [3]) | drug sensitivity score (IMR-32 [4]) | drug sensitivity score (SK-N-AS [5]) | drug sensitivity score (IMR-32 [6])
Cc1ccc(NC(=O)c2ccc(CN3CCN(C)CC3)cc2)cc1Nc1nccc(-c2cccnc2)n1 [Imatinib] | 1.5 | 0.2 | 0.2 | 1.4 | 0.2 | 3.6
O=C(c1ccc(F)c(F)c1Nc1ccc(I)cc1F)N1CC(O)([C@@H]2CCCCN2)C1 [Cobimetinib] | 0 | 18.9 | 19.2 | 0 | 19.4 | 0
CN(C)Cc1c(C(=O)NCCOc2ccc(C(=O)NO)cc2)oc2ccccc12 [Abexinostat] | 22.6 | 17.3 | 17.6 | 21.5 | 18.9 | 25
CC[C@]1(O)C[C@H]2CN(CCc3c([nH]c4ccccc34)[C@@](C(=O)OC)(c3cc4c(cc3OC)N(C=O)[C@H]3[C@@](O)(C(=O)OC)[C@H](OC(C)=O)[C@]5(CC)C=CCN6CC[C@]43[C@@H]65)C2)C1 [Vincristine] | 32.9 | 20.9 | 21.1 | 29.8 | 19.7 | 30.4
COc1cc(OC)c(/C=C/S(=O)(=O)Cc2ccc(OC)c(NCC(=O)O)c2)c(OC)c1 [Rigosertib] | 33.3 | 23 | 27.4 | 32.7 | 26.2 | 30.4
O=C(c1ccc(OCCN2CCCCC2)cc1)c1c(-c2ccc(O)cc2)sc2cc(O)ccc12 [Raloxifene] | 4.9 | 2.3 | 3.2 | 4.5 | 2.4 | 5.6
Nc1nc2[nH]cnc2c(=S)[nH]1 [Thioguanine] | 8.3 | 10.9 | 10.8 | 9.7 | 10.3 | 15.9
C=CCc1cccc(/C=N/NC(=O)CN2CCN(Cc3ccccc3)CC2)c1O | 8.6 | 1.4 | 2.4 | 11.1 | 1.9 | 8.8
Oc1nc(-c2ccc(C(F)(F)F)cc2)nc2c1CSCC2 | 0 | 0 | 0 | 0 | 0 | 1.7
O=C(O)c1ccc2c(c1)nc(Nc1cccc(Cl)c1)c1ccncc12 [Silmitasertib] | 6.9 | 5.3 | 6.3 | 8.8 | 6.3 | 9.4
CC/C(=C(\c1ccc(O)cc1)c1ccc(OCCN(C)C)cc1)c1ccccc1 [4-hydroxytamoxifen] | 6.7 | 7 | 7.7 | 11.5 | 7.8 | 10.6
CO[C@H]1C[C@@H]2CC[C@@H](C)[C@@](O)(O2)C(=O)C(=O)N2CCCC[C@H]2C(=O)O[C@H]([C@H](C)C[C@@H]2CC[C@@H](OP(C)(C)=O)[C@H](OC)C2)CC(=O)[C@H](C)/C=C(\C)[C@@H](O)[C@@H](OC)C(=O)[C@H](C)C[C@H](C)/C=C/C=C/C=C/1C [Ridaforolimus] | 7.2 | 9.8 | 9.3 | 3.8 | 11.3 | 11.5
Nc1cc(F)ccc1NC(=O)c1ccc(CNC(=O)/C=C/c2cccnc2)cc1 [Tucidinostat] | 14.1 | 8.8 | 7.1 | 11.1 | 8.6 | 15.4
Cc1nc(Nc2ncc(C(=O)Nc3c(C)cccc3Cl)s2)cc(N2CCN(CCO)CC2)n1 [Dasatinib] | 0 | 12.3 | 10.5 | 0 | 12.2 | 0
CN(c1ncccc1CNc1nc(Nc2ccc3c(c2)CC(=O)N3)ncc1C(F)(F)F)S(C)(=O)=O | 9.7 | 8.9 | 9.5 | 11.8 | 9 | 11.5
c1cc(CN2CCCNCCNCCCNCC2)ccc1CN1CCCNCCNCCCNCC1 [Plerixafor] | 0 | 0 | 0 | 0 | 0 | 0
Cn1cc(CNCC2CCN(c3ncc(C(=O)NO)cn3)CC2)c2ccccc21 [Quisinostat] | 23.1 | 18.9 | 17.3 | 23.2 | 19 | 23
CCc1c2c(nc3ccc(O)cc13)-c1cc3c(c(=O)n1C2)COC(=O)[C@]3(O)CC | 47.8 | 24.6 | 25.4 | 47.9 | 27.7 | 47.9
CCNc1nc(Nc2cc(F)c(C(=O)N3CCOCC3)cc2OC)ncc1C(F)(F)F | 0 | 0 | 0 | 0 | 0 | 0
CCCCOc1nc(N)c2c(n1)N(Cc1cccc(CN3CCCC3)c1)CC(=O)N2 [Vesatolimod] | 0.1 | 0 | 0 | 0 | 0 | 0
O=C(O)CC1CC(c2ccccc2)=NO1 (stereo not drawn) | 0 | 0 | 0 | 0 | 0 | 0
N#Cc1ccc(COC[C@H]2O[C@@H](n3c(NCc4ccc(Cl)c(Cl)c4)nc4c(N)ncnc43)[C@H](O)[C@@H]2O)cc1 | 4.5 | 7.2 | 8.1 | 7.7 | 7.7 | 7.2
CCc1cc2c(cc1N1CCC(N3CCOCC3)CC1)C(C)(C)c1[nH]c3cc(C#N)ccc3c1C2=O [Alectinib] | 2.3 | 3.5 | 2.8 | 1.3 | 2.6 | 2.8
